The values that follow come from PubChem BioAssay AID1508642 (National Center for Advancing Translational Sciences (NCATS), 2021).

The whole screen tested about 43,000 compounds, of which about 200 (0.47%) were called active. Roughly 12% stayed inconclusive and do not appear here. Calls come from the whole dose curve; as a rule, active = well fitted cell-killing curve with a large enough effect; inconclusive = small, poorly fitted or top-dose-only effect, or effect the other way; inactive = flat fitted curve, though single readings scatter. This is one part of the list.
% is set by controls: 0 for no effect and ±100 for the full control effect.

A short description of the test: Cell viability qHTS assay in S16 Pmp22-F2sN cells. Note: nearly all actives have a fitted effect of over 65% in size. As to conditions: S16 Pmp22-F2sN Schwann cells (luciferase reporters placed in the Pmp22 gene) viability, CellTiter-Glo, 24 h; series mostly up to 57.5 µM; activity change, negative = cytotoxicity: at the top concentration. In outline: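 Rat S16 Schwann reporter line, 24 h treatment with library compounds delivered at 23 nL per well. Cell viability by CellTiter-Glo luminescence.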
For orientation: qHTS replaces the single test concentration by a dilution series.
`CCCc1nc2sc3c(N4CCCCC4)ncnc3c2c2c1CCCC2`: the “activity change, negative = cytotoxicity” value is inactive: -3.77%. Next, `COc1ccc(OC)c(NC(=O)Cn2cc(S(=O)(=O)c3ccccc3)c(=O)c3cc(C)ccc32)c1`: inactive: 2.61%; `Cc1ccc(CCNC(=O)CCn2c(=O)c3cccn3c3ccc(F)cc32)cc1`: inactive: -5.33%. For the compound `CN(C)c1ccc(CNC(=O)CCCN2C(=O)CCn3nc(-c4cccn4C)cc32)cc1`, the “activity change, negative = cytotoxicity” value was inactive: -2.98%. `CCN(CCCNC(=O)c1nn(-c2ccc(C)cc2)c(=O)c2c1c1ccccc1n2C)c1ccccc1`: the “activity change, negative = cytotoxicity” value was inactive: 1.52%. For `Cc1ccc(C)c(N2CCN(C(=O)CCCn3ncn4c(cc5occc54)c3=O)CC2)c1` the value was inactive: -16.8%. `COc1cccc(CNC(=O)CCS(=O)(=O)c2cc3c(cc2C)NC(=O)CO3)c1`: the “activity change, negative = cytotoxicity” value is inactive: 2.63%. Next, `CCOc1ccc(CNC(=O)CCn2nc(C)c3c(C)n(-c4ccccc4)nc3c2=O)cc1`: inactive: -12.5%; `CCc1ccc(-n2c(=O)c3c(C)c(C(=O)N(C)C)sc3n(Cc3cccc(C)c3)c2=O)cc1`: inactive: 2.38%. Consider `COc1ccccc1OCCCn1c(C2CC(=O)N(c3ccccc3Cl)C2)nc2ccccc21` (stereo not drawn), for which the “activity change, negative = cytotoxicity” value was inactive: -11.8%.

With `COc1ccc(C(=O)Nc2ccc3nc(SCc4ccc(C)cc4)sc3c2)cc1`, the “activity change, negative = cytotoxicity” value was inactive: 0.498%. For `Cc1ccc(-n2c(=O)c3c4c(sc3n(Cc3ccccc3F)c2=O)CCC4)cc1C`, the “activity change, negative = cytotoxicity” value is inactive: -0.199%. On to `Cc1nc(-c2ccc(Cl)cc2)sc1CCNC(=O)c1ccco1`, for which the “activity change, negative = cytotoxicity” value was inactive: -13%.

For the compound `Cc1ccc(O)c(-c2ccnc3cc(-c4ccc(Cl)cc4)nn23)c1`, the “activity change, negative = cytotoxicity” value was inactive: 9.32%. Regarding `COc1cc(-c2nc3sccn3c2Nc2cccc(C)c2)ccc1O`, the “activity change, negative = cytotoxicity” value is inactive: -13.3%. For `Cc1coc2cc3oc(=O)c(CC(=O)NCc4ccc(F)cc4)c(C)c3cc12` the value was inactive: -9.67%. For `Oc1ccccc1-c1nc(/C=C/c2ccccc2Cl)no1` the value was inactive: -2.05%; for `CCc1ccc(-n2c(=O)c3ccc(C(=O)NCCc4ccccc4)cc3n(CC(N)=O)c2=O)cc1`, inactive: -1%; for `CCCCOc1ccc(C(=O)NCC2(N3CCN(C)CC3)CCCCC2)cc1`, inactive: -13%. Consider `CCS(=O)(=O)N1CCc2cc(C(=O)Nc3ccc(C)c(Cl)c3)ccc21`, for which the “activity change, negative = cytotoxicity” value is inactive: 22.5%. As for `O=C(Nc1nnc(S(=O)(=O)N2CCOCC2)s1)c1cccc(F)c1`, the “activity change, negative = cytotoxicity” value was inactive: -1.86%. For `COc1ccc(Cn2cc(C(=O)c3ccc(OC)cc3)c(=O)c3cc4c(cc32)OCCO4)cc1` the value was inactive: 5.8%. Take `COc1ccc(OC)c(NC(=O)c2cn3c4c(ccc(Cl)c4c2=O)OC(C)C3)c1` (stereo not drawn): the “activity change, negative = cytotoxicity” value is inactive: 4.16%. Turning to `CC(=O)c1cccc(NC(=O)C(Cc2ccccc2)NS(=O)(=O)c2ccc(Br)s2)c1` (stereo not drawn), the “activity change, negative = cytotoxicity” value was inactive: -6.71%. Turning to `O=C(Nc1ccc(Cl)cc1)N1CCC(CN2CCCC2)CC1`, the “activity change, negative = cytotoxicity” value is inactive: 11%. `Cc1cccc(CCNC(=O)Cn2ncc3c(=O)oc4ccccc4c32)c1`: the “activity change, negative = cytotoxicity” value is inactive: -0.685%.

As to `Cc1c2cnn(-c3ccccc3)c(=O)c2c(C)n1CC(=O)NCc1ccccc1Br`, the “activity change, negative = cytotoxicity” value was inactive: 14.5%.

On to `Cc1ccc2c(c1)C(c1ccccc1)N(C(=O)c1ccc(OC(C)C)cc1)CC(=O)N2` (stereo not drawn), for which the “activity change, negative = cytotoxicity” value was inactive: -0.545%. With `Nc1c(C(=O)Nc2ccc(Cl)c(C(F)(F)F)c2)sc2nc(-c3ccncc3)ccc12`, the “activity change, negative = cytotoxicity” value is inactive: 1.37%. Take `COc1ccc(CC(=O)NCc2ccc3c(c2)CCN3C(C)=O)cc1OC`: the “activity change, negative = cytotoxicity” value is inactive: 5.4%. As for `CCN(CC)S(=O)(=O)c1ccc2c(c1)c(=O)c(C(=O)NCc1ccc(Cl)cc1)cn2C`, the “activity change, negative = cytotoxicity” value was inactive: -9.85%. `CCOC(=O)C1CCN(C(=O)c2ccc3c(c2)sc2nc(-c4ccccc4)cn23)CC1`: the “activity change, negative = cytotoxicity” value was inactive: 0.42%. Consider `COc1cccc(CNC(=O)C2Cc3cc(S(=O)(=O)N4CCCCCC4)ccc3N2C(C)=O)c1` (stereo not drawn), for which the “activity change, negative = cytotoxicity” value is inactive: -0.965%. Consider `Cn1nc(C(=O)N2CCN(c3cccc(Cl)c3)CC2)c2c1-c1ccccc1S(=O)(=O)C2`, for which the “activity change, negative = cytotoxicity” value was inactive: 3.74%. As to `CCc1cc2c(cc3c(=O)n(CC(=O)N4CCC(C)CC4)nc(CC)n32)s1`, the “activity change, negative = cytotoxicity” value was inactive: -18%.

On to `COc1ccc(C(=O)COC(=O)c2cc(-c3ccccc3)nc3c(C)cccc23)cc1`, for which the “activity change, negative = cytotoxicity” value is inactive: -7.73%. As to `O=C1CCc2cc(S(=O)(=O)NCc3ccc(F)cc3)cc3c2N1CC3`, the “activity change, negative = cytotoxicity” value was inactive: -26.1%. Next, `Cc1nc2c(-c3ccccc3)c(C)nn2c(C)c1CCC(=O)N1CCN(c2ccccc2)CC1`: inactive: 9.68%; `CCC(=O)N1CCc2cc(Br)cc(S(=O)(=O)N3CCCC(C(=O)NCc4cccc(OC)c4)C3)c21` (stereo not drawn): inactive: 18.4%; `CN1C(=O)Cc2cc(S(=O)(=O)CCC(=O)Nc3cccc(C(F)(F)F)c3)ccc21`: inactive: -11.3%. For `CC(C)OCCCn1c(SCc2cccc(Br)c2)nc2c(sc3ccccc32)c1=O`, the “activity change, negative = cytotoxicity” value was inactive: -2.49%. Next, `COc1ccc2c(Sc3ccccc3)c(C(=O)NCc3cccc(OC)c3OC)[nH]c2c1`: inactive: 4.69%; `CCOC(=O)c1cc(S(=O)(=O)Nc2ccc(OC)c(Cl)c2)[nH]n1`: inactive: -5.1%; `CCOC(=O)C1(C)C=C(Nc2ccc(C(N)=O)cc2)C(=O)N1c1ccccc1` (stereo not drawn): inactive: 0.0478%.

On to `COc1ccccc1Oc1nc2c(c(=O)n(C)c(=O)n2C)n1Cc1cccc(Br)c1`, for which the “activity change, negative = cytotoxicity” value was inactive: 0.296%. Consider `COCCNC(=O)c1ccc2c(c1)N(Cc1cccc(Cl)c1)C(=O)c1ccccc1S2(=O)=O`, for which the “activity change, negative = cytotoxicity” value was inactive: -8.03%. `Cc1ccc(OC(=O)c2cc(-c3ccccc3)nc3ccc(C)cc23)cc1`: the “activity change, negative = cytotoxicity” value is inactive: -2.57%. `CC(=O)N1c2ccc(S(=O)(=O)NCC3CCC(C(=O)NCCC(C)C)CC3)cc2CC1C` (stereo not drawn): the “activity change, negative = cytotoxicity” value is inactive: -27.1%.
